From a compilation of properties of binary mixtures (doi:10.1016/j.molliq.2020.112856)
The densities may have been worked out from excess volumes.

Assay: xn = mol fraction of the nth substance listed
Conditions: 100 kPa

CC[n+]1ccn(CCOC)c1.N#C[S-] + CCO
mass density [kg/m3]
Conditions | x1 = 0.1 | x1 = 0.1999 | x1 = 0.3002 | x1 = 0.3995 | x1 = 0.5001 | x1 = 0.6 | x1 = 0.7 | x1 = 0.797 | x1 = 0.8964 | x1 = 1
288.15 K | 894.2 | 958.9 | 1004.7 | 1038.6 | 1061.1 | 1085 | 1102.2 | 1116.8 | 1128.8 | 1139.5
293.15 K | 890.3 | 955.2 | 1001.1 | 1035.1 | 1057.6 | 1081.6 | 1098.9 | – | 1125.5 | –
298.15 K | – | – | 997.5 | 1031.6 | – | 1078.2 | 1095.5 | 1110.2 | – | 1133
303.15 K | 882.4 | 947.7 | 993.9 | 1028.1 | 1050.8 | 1074.9 | 1092.2 | 1107 | 1119 | –
308.15 K | – | 944 | 990.4 | 1024.7 | 1047.4 | 1071.5 | 1088.9 | 1103.7 | 1115.7 | 1126.5
313.15 K | 874.5 | 940.3 | 986.8 | 1021.2 | – | 1068.2 | – | 1100.4 | – | 1123.3
318.15 K | 870.5 | 936.5 | 983.2 | 1017.8 | 1040.6 | 1064.9 | 1082.3 | 1097.2 | 1109.3 | 1120.1

CCO + CC[n+]1ccn(CCOC)c1.N#C[S-]
x2 = 0
Conditions | mass density [kg/m3]
288.15 K | 793.9
293.15 K | 789.7
298.15 K | 785.4
303.15 K | 781.1
308.15 K | 776.7
313.15 K | 772.3
318.15 K | 767.9
